Experimental data as given in PMC7349898.
No constants are given. Whether binding was seen depends on the method and setting. Some entries that bind do so weakly or less than the wild type.

T1: AtIDD6 (Arabidopsis) (UniProt Q8RWX7)
T1 sequence: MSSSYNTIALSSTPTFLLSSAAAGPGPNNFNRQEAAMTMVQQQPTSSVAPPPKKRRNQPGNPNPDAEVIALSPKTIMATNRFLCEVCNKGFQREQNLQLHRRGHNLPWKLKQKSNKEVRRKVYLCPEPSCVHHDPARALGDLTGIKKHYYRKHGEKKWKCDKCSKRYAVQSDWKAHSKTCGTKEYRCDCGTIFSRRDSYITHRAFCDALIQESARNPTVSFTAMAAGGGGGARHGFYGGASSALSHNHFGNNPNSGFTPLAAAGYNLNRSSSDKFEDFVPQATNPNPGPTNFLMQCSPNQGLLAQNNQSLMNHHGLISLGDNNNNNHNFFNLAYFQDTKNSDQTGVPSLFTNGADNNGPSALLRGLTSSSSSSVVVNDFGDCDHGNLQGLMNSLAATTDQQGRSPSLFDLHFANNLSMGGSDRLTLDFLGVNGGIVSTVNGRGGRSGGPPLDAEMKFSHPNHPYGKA

T2: AtIDD14 (Arabidopsis) (UniProt Q9C9X7)
T2 sequence: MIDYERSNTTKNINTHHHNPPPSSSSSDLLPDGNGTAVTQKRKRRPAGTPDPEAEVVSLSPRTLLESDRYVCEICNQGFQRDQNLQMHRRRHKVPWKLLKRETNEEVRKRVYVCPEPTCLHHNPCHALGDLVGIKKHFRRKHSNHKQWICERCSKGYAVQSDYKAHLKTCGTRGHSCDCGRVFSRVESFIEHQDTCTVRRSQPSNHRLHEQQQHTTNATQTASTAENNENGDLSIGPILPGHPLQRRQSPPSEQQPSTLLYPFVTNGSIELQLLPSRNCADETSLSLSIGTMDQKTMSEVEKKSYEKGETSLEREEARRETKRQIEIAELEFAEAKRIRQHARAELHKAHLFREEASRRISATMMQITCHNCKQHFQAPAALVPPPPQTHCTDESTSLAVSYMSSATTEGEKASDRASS

B1: SHORT-ROOT (protein, UniProt Q9SZF7 1-531)
chain: MDTLFRLVSLQQQQQSDSIITNQSSLSRTSTTTTGSPQTAYHYNFPQNDVVEECFNFFMDEEDLSSSSSHHNHHNHNNPNTYYSPFTTPTQYHPATSSTPSSTAAAAALASPYSSSGHHNDPSAFSIPQTPPSFDFSANAKWADSVLLEAARAFSDKDTARAQQILWTLNELSSPYGDTEQKLASYFLQALFNRMTGSGERCYRTMVTAAATEKTCSFESTRKTVLKFQEVSPWATFGHVAANGAILEAVDGEAKIHIVDISSTFCTQWPTLLEALATRSDDTPHLRLTTVVVANKFVNDQTASHRMMKEIGNRMEKFARLMGVPFKFNIIHHVGDLSEFDLNELDVKPDEVLAINCVGAMHGIASRGSPRDAVISSFRRLRPRIVTVVEEEADLVGEEEGGFDDEFLRGFGECLRWFRVCFESWEESFPRTSNERLMLERAAGRAIVDLVACEPSDSTERRETARKWSRRMRNSGFGAVGYSDEVADDVRALLRRYKEGVWSMVQCPDAAGIFLCWRDQPVVWASAWRPT
B2: RGA-LIKE 1 (protein, UniProt Q9C8Y3 1-511)
chain: MKREHNHRESSAGEGGSSSMTTVIKEEAAGVDELLVVLGYKVRSSDMADVAHKLEQLEMVLGDGISNLSDETVHYNPSDLSGWVESMLSDLDPTRIQEKPDSEYDLRAIPGSAVYPRDEHVTRRSKRTRIESELSSTRSVVVLDSQETGVRLVHALLACAEAVQQNNLKLADALVKHVGLLASSQAGAMRKVATYFAEGLARRIYRIYPRDDVALSSFSDTLQIHFYESCPYLKFAHFTANQAILEVFATAEKVHVIDLGLNHGLQWPALIQALALRPNGPPDFRLTGIGYSLTDIQEVGWKLGQLASTIGVNFEFKSIALNNLSDLKPEMLDIRPGLESVAVNSVFELHRLLAHPGSIDKFLSTIKSIRPDIMTVVEQEANHNGTVFLDRFTESLHYYSSLFDSLEGPPSQDRVMSELFLGRQILNLVACEGEDRVERHETLNQWRNRFGLGGFKPVSIGSNAYKQASMLLALYAGADGYNVEENEGCLLLGWQTRPLIATSAWRINRVE
B3: SCARECROW-LIKE 3 (protein, UniProt Q9LPR8 1-482)
chain: MVAMFQEDNGTSSVASSPLQVFSTMSLNRPTLLASSSPFHCLKDLKPEERGLYLIHLLLTCANHVASGSLQNANAALEQLSHLASPDGDTMQRIAAYFTEALANRILKSWPGLYKALNATQTRTNNVSEEIHVRRLFFEMFPILKVSYLLTNRAILEAMEGEKMVHVIDLDASEPAQWLALLQAFNSRPEGPPHLRITGVHHQKEVLEQMAHRLIEEAEKLDIPFQFNPVVSRLDCLNVEQLRVKTGEALAVSSVLQLHTFLASDDDLMRKNCALRFQNNPSGVDLQRVLMMSHGSAAEARENDMSNNNGYSPSGDSASSLPLPSSGRTDSFLNAIWGLSPKVMVVTEQDSDHNGSTLMERLLESLYTYAALFDCLETKVPRTSQDRIKVEKMLFGEEIKNIISCEGFERRERHEKLEKWSQRIDLAGFGNVPLSYYAMLQARRLLQGCGFDGYRIKEESGCAVICWQDRPLYSVSAWRCRK
B4: SLR1 (protein, UniProt Q7G7J6 1-625)
chain: MKREYQEAGGSSGGGSSADMGSCKDKVMAGAAGEEEDVDELLAALGYKVRSSDMADVAQKLEQLEMAMGMGGVSAPGAADDGFVSHLATDTVHYNPSDLSSWVESMLSELNAPLPPIPPAPPAARHASTSSTVTGGGGSGFFELPAAADSSSSTYALRPISLPVVATADPSAADSARDTKRMRTGGGSTSSSSSSSSSLGGGASRGSVVEAAPPATQGAAAANAPAVPVVVVDTQEAGIRLVHALLACAEAVQQENFAAAEALVKQIPTLAASQGGAMRKVAAYFGEALARRVYRFRPADSTLLDAAFADLLHAHFYESCPYLKFAHFTANQAILEAFAGCHRVHVVDFGIKQGMQWPALLQALALRPGGPPSFRLTGVGPPQPDETDALQQVGWKLAQFAHTIRVDFQYRGLVAATLADLEPFMLQPEGEADANEEPEVIAVNSVFELHRLLAQPGALEKVLGTVHAVRPRIVTVVEQEANHNSGSFLDRFTESLHYYSTMFDSLEGGSSGQAELSPPAAGGGGGTDQVMSEVYLGRQICNVVACEGAERTERHETLGQWRNRLGRAGFEPVHLGSNAYKQASTLLALFAGGDGYRVEEKEGCLTLGWHTRPLIATSAWRVAAA

Key:
AtIDD6 (Arabidopsis) = molecular target: T1, AtIDD6 (Arabidopsis); assay: two-hybrid; Gal4 yeast two-hybrid; baits in pGBT9, preys in pGAD424; yeast strain PJ69-4A; serial dilutions spotted on -LW and -LWH with an appropriate concentration of 3-AT; 3 days at 30 °C
AtIDD14 (Arabidopsis) = molecular target: T2, AtIDD14 (Arabidopsis); assay: as above

Row | Binder | binding (AtIDD6 (Arabidopsis)) | binding (AtIDD14 (Arabidopsis))
1 | B1 | binds | no binding
2 | B2 | binds | no binding
3 | B3 | no binding | no binding
4 | B4 | no binding | no binding
